Measured values as given in PubChem BioAssay (NCATS).
This list was built around the results that the source calls inconclusive (neither active nor inactive); the mix of calls is not that of the screen. For part of these data: Potencies of inconclusive entries are left out as doubtful fits. Activity calls are given as the source filed them. The call rests on the fitted dose curve; in most records, active means well fitted curve in the direction sought with a large enough effect; inconclusive means small, poorly fitted or top-dose-only effect, or another doubt; inactive means no such curve, though single readings can be large; an effect the other way counts as inactive or inconclusive.

Tests used:
[1] = target: Ubiquitin carboxyl-terminal hydrolase 1 (Homo sapiens) (UniProt O94782); test: Inhibitors of USP1/UAF1: Pilot qHTS (AID 504865); conditions: purified USP1/UAF1, Ub-rhodamine cleavage fluorescence; series mostly up to 114 µM;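 further: rhodamine fluorescence freed from ubiquitin-rhodamine substrate followed over time; nearly all actives have a fitted effect of over 35% in size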
UniProt O94782, sequence (O94782 whole entry, looked up): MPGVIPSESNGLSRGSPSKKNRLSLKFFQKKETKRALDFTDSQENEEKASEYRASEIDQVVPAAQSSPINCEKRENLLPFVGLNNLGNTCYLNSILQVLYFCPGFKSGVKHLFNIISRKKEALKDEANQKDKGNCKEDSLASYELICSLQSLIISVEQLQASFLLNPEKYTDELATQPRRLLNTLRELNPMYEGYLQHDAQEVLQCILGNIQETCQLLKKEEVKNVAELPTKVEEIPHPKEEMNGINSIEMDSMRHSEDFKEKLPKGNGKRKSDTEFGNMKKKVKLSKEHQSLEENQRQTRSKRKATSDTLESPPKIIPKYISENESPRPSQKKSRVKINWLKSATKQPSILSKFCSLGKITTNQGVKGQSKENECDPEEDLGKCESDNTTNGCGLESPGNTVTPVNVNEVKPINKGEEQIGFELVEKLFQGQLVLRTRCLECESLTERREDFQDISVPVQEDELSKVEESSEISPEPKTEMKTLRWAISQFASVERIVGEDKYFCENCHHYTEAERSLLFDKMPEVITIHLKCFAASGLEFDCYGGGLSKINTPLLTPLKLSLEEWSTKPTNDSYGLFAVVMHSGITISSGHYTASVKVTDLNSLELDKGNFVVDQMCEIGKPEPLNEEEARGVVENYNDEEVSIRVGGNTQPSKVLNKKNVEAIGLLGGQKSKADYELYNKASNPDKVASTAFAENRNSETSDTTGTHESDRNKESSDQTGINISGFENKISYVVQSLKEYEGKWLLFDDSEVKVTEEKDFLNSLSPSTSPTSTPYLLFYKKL
Method in brief: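 Enzyme-free wells gave the negative control, while test wells held 1nM USP1/UAF1 preincubated with compound for 15 min at room temperature. Ub-Rho at 150nM final started the reaction, and fluorescence at 480/540 nm was recorded kinetically.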

[2] = qHTS of pediatric cancer cell lines to identify multiple opportunities for drug repurposing: Confirmatory screen for NB1643 cells (AID 1347109); conditions: NB1643 neuroblastoma cell viability; series mostly up to 45.9 µM; further: nearly all actives have a fitted effect of over 45% in size
Method in brief: (§1)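 Cells (500-1,000/well) in growth media were settled 5 h at 37 degrees C, then given compounds for 48 h. Viability was read as CellTiter-Glo luminescence. Primary runs used MIPE at 11 points (0.78 nM-46 µM) and NPC at 8 points (0.59 nM-46 µM); follow-ups used 11 points.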

[3] = qHTS of pediatric cancer cell lines to identify multiple opportunities for drug repurposing: Confirmatory screen for RD cells (AID 1347124); conditions: RD rhabdomyosarcoma cell viability; activity change, negative = cytotoxic: at 45.9 µM (top of the series);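 further: cells exposed to compound for 48 h before viability readout; nearly all actives have a fitted effect of over 65% in size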
Method in brief: as §1

[4] = Quantitative High-Throughput drug screen in 47 multiple myeloma cell lines against the NCATS MIPE library collection: AMO1_DSMZ cell viability assay (AID 1918927; further: nearly all actives have a fitted effect of over 30% in size); conditions: AMO1 myeloma cells viability, CellTiter-Glo ATP luminescence, 48 h; viability, % of DMSO: at 45.8 µM (top of the series)
Method in brief: (§2)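 Viability readout: CellTiter-Glo luminescence following 5 min room-temperature incubation with reagent. Prior exposure: 48 h, 37C, humidified 5% CO2, 500 cells per well.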

[5] = Quantitative High-Throughput drug screen in 47 multiple myeloma cell lines against the NCATS MIPE library collection: ARD_JJKsccE7 cell viability assay (AID 1918929); conditions: ARD myeloma cell line viability, CellTiter-Glo, 48 h; viability: at 45.8 µM (top of the series)
Method in brief: as §2

[6] = Quantitative High-Throughput drug screen in 47 multiple myeloma cell lines against the NCATS MIPE library collection: KMS12PE_JCRB cell viability assay (AID 1918972); conditions: KMS12PE myeloma viability, CellTiter-Glo ATP, 48 h; series mostly up to 45.8 µM; further: nearly all actives have a fitted effect of over 30% in size
Method in brief: (§3)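 Luminescent ATP measurement with CellTiter-Glo gives viability, scaled between DMSO-only wells (100%) and media-only wells (0%). Cells, 500 per well, faced library compounds for 48 hours at 37C.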

[7] = Quantitative High-Throughput drug screen in 47 multiple myeloma cell lines against the NCATS MIPE library collection: MMM1_PLB cell viability assay (AID 1918976); conditions: MMM1 myeloma cells viability, CellTiter-Glo, 48 h; series mostly up to 45.8 µM; further: nearly all actives have a fitted effect of over 35% in size
Method in brief: (§4)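 qHTS format: cells plated (500/well), pin-dosed with MIPE 4.0 compounds, kept 48 h at 37 °C. Readout was CellTiter-Glo luminescence, median RLU.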

[8] = Quantitative High-Throughput drug screen in 47 multiple myeloma cell lines against the NCATS MIPE library collection: NCIH929_DSMZ cell viability assay (AID 1918978); conditions: NCI-H929 myeloma viability, CellTiter-Glo ATP, 48 h; viability, % of control: at 45.8 µM (top of the series); further: nearly all actives have a fitted effect of over 35% in size
Method in brief: as §4

[9] = Quantitative High-Throughput drug screen in 47 multiple myeloma cell lines against the NCATS MIPE library collection: MM1R_ATCC cell viability assay (AID 1918981); conditions: MM1R multiple myeloma cells, CellTiter-Glo viability, 48 h; series mostly up to 45.8 µM; further: nearly all actives have a fitted effect of over 35% in size
Method in brief: as §4

[10] = Quantitative High-Throughput drug screen in 47 multiple myeloma cell lines against the NCATS MIPE library collection: KMS34_JCRB cell viability assay (AID 1918985); conditions: KMS34 myeloma viability, CellTiter-Glo ATP luminescence, 48 h; series mostly up to 45.8 µM; further: nearly all actives have a fitted effect of over 40% in size
Method in brief: as §4

[11] = target: Luciferin 4-monooxygenase (Photinus pyralis) (UniProt P08659); test: Primary firefly luciferase (FLuc) qHTS assay for identification of artifact compounds. (AID 1845220); conditions: purified firefly luciferase, luminescence, 5 min; series mostly up to 54.1 µM; further: nearly all actives have a fitted effect of over 60% in size
Method in brief: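 Reaction readout was CCD-imaged luminescence, taken 5 min after adding 10 nM purified firefly enzyme to compound-treated wells holding 10 uM luciferin and ATP in pH 7.6 buffer.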

[12] = Quantitative High-Throughput drug screen in 47 multiple myeloma cell lines against the NCATS MIPE library collection: XG6_PLB cell viability assay (AID 1919865); conditions: XG6 myeloma viability, CellTiter-Glo ATP luminescence, 48 h; viability (% of control): at 45.8 µM (top of the series); further: nearly all actives have a fitted effect of over 40% in size
Method in brief: as §4

[13] = Quantitative High-Throughput drug screen in 47 multiple myeloma cell lines against the NCATS MIPE library collection: OPM2_DSMZ cell viability assay (AID 1919872); conditions: OPM2 myeloma viability, CellTiter-Glo ATP luminescence, 48 h; series mostly up to 45.8 µM; further: nearly all actives have a fitted effect of over 30% in size
Method in brief: as §2

[14] = qHTS of pediatric cancer cell lines to identify multiple opportunities for drug repurposing: Confirmatory screen for BT-12 cells (AID 1347112); conditions: BT-12 rhabdoid tumor cells, viability; series mostly up to 45.9 µM; further: nearly all actives have a fitted effect of over 55% in size
Method in brief: as §1

[15] = qHTS of pediatric cancer cell lines to identify multiple opportunities for drug repurposing: Confirmatory screen for LAN-5 cells (AID 1347113); conditions: LAN-5 neuroblastoma cell viability; series mostly up to 45.9 µM; further: nearly all actives have a fitted effect of over 65% in size
Method in brief: as §1

[16] = qHTS of pediatric cancer cell lines to identify multiple opportunities for drug repurposing: Confirmatory screen for SJ-GBM2 cells (AID 1347116); conditions: SJ-GBM2 glioblastoma cells, viability; series mostly up to 45.9 µM; further: nearly all actives have a fitted effect of over 60% in size
Method in brief: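 Viability measured as metabolically active cells via CellTiter-Glo luminescence following 48 hours of compound exposure, 11-point dilutions in confirmatory testing. 500-1,000 cells/well plated 5 hours before dosing; controls were DMSO and 2.3 µM bortezomib.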

[17] = qHTS of pediatric cancer cell lines to identify multiple opportunities for drug repurposing: Confirmatory screen for Rh30 cells (AID 1347126); conditions: Rh30 rhabdomyosarcoma cell viability; series mostly up to 45.9 µM; further: nearly all actives have a fitted effect of over 55% in size; on activity change, negative = cytotoxic: on the % scale 0 is the no-effect control and ±100 the full control effect
Method in brief: as §1

[18] = Quantitative High-Throughput drug screen in 47 multiple myeloma cell lines against the NCATS MIPE library collection: KMS12BM_JCRB cell viability assay (AID 1918971); conditions: KMS12BM myeloma viability, CellTiter-Glo ATP, 48 h; series mostly up to 45.8 µM; further: nearly all actives have a fitted effect of over 35% in size
Method in brief: as §3

[19] = system: Zika virus NS2B-NS3 protease; test: Primary screen GU AMC qHTS for Zika virus inhibitors (AID 1347154); conditions: Zika NS2B-NS3 unlinked protease, AMC fluorogenic substrate; series mostly up to 54.1 µM; further: nearly all actives have a fitted effect of over 70% in size
Method in brief: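 Unlinked Zika NS2B hydrophilic domain/NS3 protease domain noncovalent complex (25 nM final) in 10 mM Tris-HCl pH 8.0, 0.01% Tween 20, with AMC peptide substrate. Fluorescence (ex 340, em 450 nm) change over 15 min, room temperature; percent inhibition fitted to 4-parameter Hill equation.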

[20] = system: CP268; test: qHTS profiling for inhibitors of Plasmodium falciparum proliferation (AID 504749); further: nearly all actives have a fitted effect of over 60% in size; conditions: P. falciparum in erythrocytes, SYBR Green DNA, 72 h; series mostly up to 28.7 µM
Method in brief: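 Quantitative HTS: compounds pinned into medium, infected erythrocytes added (0.3% parasitemia, 2.5% hematocrit), 72 h culture at 37 C under 5% CO2. Saponin/Triton lysis with SYBR Green I, overnight RT, then fluorescence read.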
Potency means the concentration at half of the fitted maximal effect; tags describe the fitted curve by direction and shape.

In the case of `CCCOC(=O)c1ccccc1`, the Potency [1] was “inactive”.
For `O=C(C=CC#Cc1cccc(NS(=O)(=O)c2ccccc2)c1)NO`, the Potency [2] was active: 2330 nM, the Potency [3] was active: 5220 nM and the Potency [4] was inconclusive [cytotoxic, full curve, poor fit]. The Potency [5] was active: 1180 nM, the Potency [6] was active: 1180 nM and the Potency [7] was inconclusive [cytotoxic, full curve, poor fit]. For the same molecule, the Potency [8] was active: 1180 nM, the Potency [9] was active: 1480 nM and the Potency [10] was active: 935 nM.
With `C/C(=N\N=C(N)N)c1cc(NC(=O)CCCCCCCCC(=O)Nc2cc(/C(C)=N/N=C(N)N)cc(/C(C)=N/N=C(N)N)c2)cc(/C(C)=N/N=C(N)N)c1` the Potency [11] was inconclusive [inhibitor, single point].
For `CCOC(=O)[C@H](CCc1ccccc1)N[C@@H](C)C(=O)N1[C@@H](C(=O)O)C[C@H]2CCC[C@@H]21`, the Potency [5] was active: 9350 nM, the Potency [7] was active: 18700 nM and the Potency [10] was active: 26400 nM. The Potency [12] was active: 7430 nM and the Potency [13] was active: 26400 nM.
For `Cc1nc2ccc(-n3ncc(C(=O)c4cc5ccccc5[nH]4)c3N)cc2[nH]1`, the Potency [11] was active: 3380 nM.
With `Cc1ccc(C(=O)Nc2ccc(CN3CCN(C)CC3)c(C(F)(F)F)c2)cc1C#Cc1cnc2[nH]ncc2c1` the Potency [11] was active: 23900 nM.
In the case of `COc1cc(OC)c(C=CS(=O)(=O)Cc2ccc(OC)c(NCC(=O)O)c2)c(OC)c1`, the Potency [14] was inconclusive [cytotoxic, full curve], the Potency [15] was active: 1170 nM and the Potency [16] was inconclusive [cytotoxic, full curve]. For the same molecule, the Potency [3] was inconclusive [cytotoxic, full curve], the Potency [17] was “inactive” and the Potency [18] was active: 418 nM. The Potency [6] was active: 105 nM, the Potency [8] was active: 2640 nM and the Potency [9] was active: 2350 nM. The Potency [12] was active: 833 nM.
With `Cc1cc(N2CCOCC2)cc2[nH]c(-c3c(NC[C@@H](O)c4cccc(Cl)c4)cc[nH]c3=O)nc12` the Potency [14] was inconclusive [cytotoxic, partial curve, poor fit], the Potency [3] was inconclusive [cytotoxic, full curve, poor fit] and the Potency [19] was active: 17100 nM. For the same molecule, the Potency [5] was inconclusive [cytotoxic, full curve, poor fit], the Potency [12] was active: 83.3 nM and the Potency [13] was active: 3720 nM.
For `C=CC(=O)Nc1cccc(Nc2nc(NC3CCC(N(C)C)CC3)nc3c2ncn3C(C)C)c1` (stereo not given), the Potency [2] was active: 414 nM, the Potency [14] was active: 1170 nM and the Potency [15] was active: 827 nM. The Potency [16] was active: 4650 nM, the Potency [17] was inconclusive [cytotoxic, full curve] and the viability, % of DMSO [4] was inconclusive: 3.41% [cytotoxic]. For the same molecule, the Potency [18] was active: 469 nM, the Potency [8] was active: 37.2 nM and the Potency [10] was active: 1050 nM.
For `C/C(=C\C(=O)OCCCCCCCCC(=O)O)C[C@@H]1OC[C@H](C[C@@H]2O[C@H]2[C@@H](C)[C@H](C)O)[C@@H](O)[C@H]1O`, the Potency [20] was inconclusive [inhibitor, full curve].
With `N[C@@H](Cc1ccc(O)cc1)C(=O)O` the Potency [1] was “inactive”.
With `CN1CCC[C@@H]1CCO[C@](C)(c1ccccc1)c1ccc(Cl)cc1` the Potency [20] was inconclusive [inhibitor, single point].
In the case of `CN1CCN(CCCN2c3ccccc3Sc3ccc(C(F)(F)F)cc32)CC1`, the Potency [1] was active: 50100 nM, the Potency [2] was active: 23300 nM and the Potency [15] was inconclusive [cytotoxic, single point]. The Potency [16] was inconclusive [cytotoxic, single point], the Potency [17] was inconclusive [cytotoxic, single point] and the Potency [4] was “inactive”. For the same molecule, the Potency [18] was “inactive”, the Potency [6] was “inactive” and the Potency [7] was inconclusive [rising, full curve, poor fit]. The Potency [9] was “inactive”, the Potency [13] was “inactive” and the Potency [20] was inconclusive [inhibitor, partial curve].
In the case of `CCOC(=O)C1=C(C)NC(C)=C(C(=O)OC)C1c1cccc(Cl)c1Cl` (stereo not given), the Potency [19] was inconclusive [inhibitor, partial curve, poor fit].
With `NS(=O)(=O)c1cc(C(=O)O)cc(N2CCCC2)c1Oc1ccccc1` the Potency [19] was inconclusive [inhibitor, partial curve].
